GI50 and TGI data for 55 molecules are collected here from PubChem BioAssay (NCI).

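Cultured in 96-well plates, cells were exposed to test compound for 48 hours across five concentrations. GI50 = concentration required for 50% inhibition of growth. TGI denotes the concentration required for complete inhibition of growth.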

The assay concerns NCI-H322M lung. Put plainly: NCI-60 cell line screen, 48 h.

Take `CC(=O)[CH-]C(=O)c1ccccc1.CC(=O)[CH-]C(=O)c1ccccc1.CC(C)CCCC(C)[C@H]1CCC2[C@@H]3CCC4C[C@@H]([O-])CC[C@]4(C)C3CC[C@@]21C.CC(C)CCCC(C)[C@H]1CCC2[C@@H]3CCC4C[C@@H]([O-])CC[C@]4(C)C3CC[C@@]21C.Cl.[Ti+4]` (some centres undefined): the GI50 is over 25 µM and the TGI was over 25 µM. Regarding `CN[C@@H]1[C@H](O)[C@H](NC)[C@H]2O[C@@]3(O)C(=O)C[C@@H](C)O[C@H]3O[C@@H]2[C@H]1O`, the TGI is over 100 µM. With `COc1ccc(-c2ccc(=O)oc2-c2cc(OC)c(OC)c(OC)c2)cc1O`, the GI50 was over 100 µM and the TGI was over 100 µM. In turn, `NC(CCc1nc(-c2ccccc2)cs1)C(=O)O` (centres undefined) had a TGI of over 100 µM. `COc1cc(C(CN)N(C)C)cc(OC)c1OC` (centres undefined) returned a TGI of over 100 µM. In the case of `CCCC(=O)C(CC)/C(CCC(=O)N(Cc1ccccc1)Cc1ccccc1)=N/NC(=O)C[N+](C)(C)C` (centres undefined), the TGI was over 100 µM. Same read-out and setting: the result for `CCCCCCCCCCCCCCCCCCNc1ccn(C2OC(COP(=O)(O)OCCCCCCCCCCCCCCCC)C(O)C2O)c(=O)n1` (centres undefined) reads over 100 µM; that for `COc1ccc(/C=C/c2cc(=O)cc(/C=C/c3ccc(OC)c(O)c3)o2)cc1O`, 12.6 µM; that for `COc1cccc2c1[C@H](OC)[C@]13O[C@@]1(C2=O)[C@H](O)[C@H](C)[C@@](O)(C(=O)[C@@H]1O[C@H]1C)[C@@H]3O`, 5.02 µM. Same read-out and setting: in the case of `CC(C)Nc1n[nH]c(=O)n1C(C)C` it was over 100 µM; in that of `Cc1ccccc1N=Nc1ccc(N=Nc2c(O)ccc3cc(S(=O)(=O)O)cc(S(=O)(=O)O)c23)c(C)c1`, over 100 µM. On to `CO/N=C(\COc1ccc2c(=O)cc(-c3ccccc3)oc2c1)c1ccc(OC)cc1`, for which the GI50 is over 100 µM and the TGI is over 100 µM. Take `CN1CCN(c2ccc3nc(-c4ccc5nc(-c6ccc(C(F)(F)F)cc6)[nH]c5c4)[nH]c3c2)CC1`: the GI50 was 1.92 µM and the TGI came to 3.77 µM. The like results for `CC(C)(C)OC(=O)N(CCCn1c2c(c3ccccc3c1=O)C(=O)c1ccccc1-2)CCN(CCCn1c2c(c3ccccc3c1=O)C(=O)c1ccccc1-2)C(=O)OC(C)(C)C` were, in that order, over 50 µM and over 50 µM. Molecule `COc1ccc(Oc2nc3cc(C(F)(F)F)ccc3nc2C(C)C)cc1` yielded a TGI of over 100 µM.

`O=C(O)C1(C(=O)O)CCN(S(=O)(=O)c2ccccc2)CC1`: the TGI was over 100 µM. In turn, `COC(=O)C(=O)C(C(=O)C(=O)Nc1ccc([N+](=O)[O-])cc1C#N)c1nc2ccc([N+](=O)[O-])cc2[nH]c1=O` (centres undefined) yielded a TGI of over 100 µM. Same read-out and setting: in the case of `Cc1cc(Cl)ccc1N1C(=O)C(=O)C(c2nc3ccccc3s2)/C(=N\NC(=O)c2ccccc2O)C1=O` (centres undefined) it was over 100 µM. `COc1ccc(/C=C2/CCOC2=O)cc1`: the GI50 is over 100 µM and the TGI is over 100 µM.

Regarding `N=c1nc(N)nc(N)n1-c1ccc(S(N)(=O)=O)cc1`, the TGI was over 100 µM.

Regarding `Cc1cc(Cl)ccc1OCC(=O)Oc1c(Cl)c(Cl)c(Cl)c(Cl)c1Cl`, the TGI is 55.2 µM. As to `CC(=O)c1ccc(NCn2nc(-c3ccccc3O)oc2=S)cc1`, the GI50 is over 100 µM and the TGI is over 100 µM.

As for `CC(C)(C)c1ccc(NC(=O)c2cc(=O)c3ccccc3[nH]2)c(C(C)(C)C)c1O`, the GI50 is 13.2 µM and the TGI is 26.8 µM.

On to `CC(=O)OC1CC(C)c2c1ncnc2N1CCN(C(=O)OC(C)(C)C)CC1` (centres undefined), for which the GI50 was 47.2 µM and the TGI is over 100 µM. In the case of `CC(=O)N1C(=O)C(=O)c2cc(Cl)ccc21`, the TGI was over 100 µM.

Consider `O=C(Oc1ccccc1Cl)c1cccnc1Nc1ccnc(C(F)(F)F)c1`, for which the GI50 was 16.2 µM and the TGI was 31.5 µM. The like results for `CCCCCCCCCCCCCCCC[N+](C)(C)C` were, in that order, 2.72 µM and 11.4 µM. Molecule `Nc1nonc1-c1noc(-c2nonc2N)[n+]1[O-]` had a TGI of over 100 µM. Take `COc1ccc(-n2nc(C)c3c(Nc4ccc(NC(=O)Nc5cc(C(F)(F)F)ccc5F)cc4)ncnc32)cc1`: the GI50 is 2.55 µM and the TGI was 8.6 µM. For the molecule `O=c1cc(-c2ccccc2)oc2cc(OCc3cn(Cc4ccc(F)cc4)nn3)cc(O)c12`, the GI50 was over 100 µM and the TGI is over 100 µM. Molecule `C1CSCCSS[C@@H]2CCCCC2SC1` (some centres undefined) returned a TGI of over 100 µM. With `C=C(C)[C@@H]1CC[C@]2(C)[C@H](CC=C3[C@@H]4CC(C)(C)CC[C@]4(C(=O)OC)CC[C@]32C)[C@@]1(C)CC/C(N)=N/O`, the GI50 is 2.26 µM and the TGI worked out at 6.14 µM.

Consider `S=c1scc(-c2ccc(Cl)cc2)n1OC1CCCC1`, for which the TGI is over 100 µM. The molecule `C/C(=N/NC(=S)Nc1cccc(Cl)c1)c1cccc(/C(C)=N\NC(=S)Nc2cccc(Cl)c2)n1` came in with a TGI of 43 µM.

The molecule `Cc1ccc(-c2n[nH]c(CC#N)n2)cc1` had a TGI of over 100 µM. Still for that read-out and setting: the result for `COc1ccc2c3c([nH]c2c1[N+](=O)[O-])C(C)N(C(=O)/C=C/c1ccccc1)CC3` (centres undefined) reads 57.4 µM; that for `CN1C(=O)c2cccc3c([N+](=O)[O-])ccc(c23)C1=O`, 29.2 µM. As for `CC(=O)O[C@H]1CC[C@]2(C)[C@H]3C(=O)C=C4[C@@H]5C[C@](C)(C(=O)N6CCCNCC6)CC[C@]5(C)CC[C@@]4(C)[C@]3(C)CC[C@H]2C1(C)C`, the GI50 was 1.57 µM and the TGI stood at 2.93 µM.

As to `COc1cc(/C=C\c2cc(/C=C\c3ccc(O)c(OC)c3)n(C(=O)Nc3ccc(C(F)(F)F)cc3)n2)ccc1O`, the GI50 was 3.25 µM and the TGI was found to be 12.9 µM.

In the case of `COC(=O)C1=C(O)C(C(=O)OC)[C@@]2(O)[C@@H](C(=O)OC)C(c3ccc(OC(=O)/C(=C/c4ccccc4)c4ccccc4)cc3)C[C@@H]1[C@@H]2C(=O)OC` (some centres undefined), the TGI was over 100 µM. `N#CC1(C#N)C(c2ccccc2)NC23CCCCC2C1(C#N)C(=O)N3` (centres undefined) returned a TGI of over 100 µM. For `COc1cc2c(C#N)n3c(c2cc1OC)C(=O)C(c1ccccc1)Oc1ccccc1-3` (centres undefined), the GI50 was over 100 µM and the TGI is over 100 µM.

Regarding `CNC1=C(Br)C(=O)C2=C(C1=O)C1C3=C(C(=O)C=CC3=O)C2c2ccccc21` (centres undefined), the GI50 was 19.5 µM and the TGI was 38.4 µM. In the same order, the values of `CN1CCN(c2ccc(NC3=C(Cl)C(=O)c4ncccc4C3=O)cc2C(F)(F)F)CC1` are 15.3 µM and 28.6 µM. `CCN(CC)CCNC(=O)c1ccccc1Nc1c(Cl)cccc1Cl`: the TGI turned out to be 26.3 µM. On the same count and under the same terms, the result for `COc1cccc(C(=O)O)c1Cc1cccc2ccccc12` reads over 100 µM; that for `Cc1ccc(-c2n[nH]c(=O)n2N)cc1`, over 100 µM; that for `O=C(O/N=C1/CCC/C1=C\c1ccccc1)c1ccc(Cl)cc1`, over 100 µM. On the same count and under the same terms, the result for `N=C(N)SC1c2ccccc2-c2cc([N+](=O)[O-])ccc21` (centres undefined) reads 29.2 µM; that for `CN(C)c1ncc(-c2c[nH]c3ccccc23)nc1-c1c[nH]c2ccccc12`, 12.9 µM. On the same count and under the same terms, the result for `COc1ccc(-n2c(C)nc3ccc(N=Cc4ccccc4)cc3c2=O)cc1` reads over 100 µM; that for `NCC(=O)OCN1C(=O)C2C3C=CC(C2C1=O)C1C2C(=O)N(COC(=O)CN)C(=O)C2C31` (centres undefined), over 100 µM; that for `CC(=O)C1C(=O)C(=O)N(c2ccc(Cl)cc2C)C1=O` (centres undefined), over 100 µM.

Molecule `O=c1oc2ccccc2c(O)c1C(c1ccc([N+](=O)[O-])cc1)c1c(O)c2ccccc2oc1=O` had a TGI of over 100 µM.

For `NC(Cc1ccc2oc3cc(=O)c4ccccc4c-3nc2c1)C(=O)O` (centres undefined), the TGI amounted to 49.9 µM.
